In all, about 43,000 compounds went through this assay and about 830 (1.9%) were called active. Inconclusive results, whose numbers are uncertain, are shown with a selection of clear calls. The calls were made as follows: active = clear falling dose curves in both reporters; inconclusive = both reporters move, but less clearly or upward; inactive = either reporter flat; the % is the NLuc reporter signal. Potencies of inconclusive entries are left out as doubtful fits.
Assay: Cell-based coincidence reporter assay to measure PMP22 gene transcription in S16 Pmp22-F2sN cells - Primary screen
Details: S16 Pmp22-F2sN Schwann cells (luciferase reporters placed in the Pmp22 gene), FLuc/NLuc coincidence luminescence, 24 h; measured here: NLuc reporter readout, at 57.5 µM (top of the series)
Outline: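 S16(c9) Schwann cells with FLuc/NLuc coincidence reporter in the Pmp22 3' UTR; compounds pin-transferred, 24 h at 37C. Dual-luciferase read: FLuc first, then NLuc after Stop&Glo, each 10 min at room temperature.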
Potency is read from the fitted curve at half-maximal effect; tags tell the direction and shape of the fitted curve.

| SMILES | Potency |
| --- | --- |
| CC(C)c1ccc(OCC(O)CN2CCN(c3ccc(F)cc3)CC2)cc1 (stereo not drawn) | inconclusive [phenotype inactive, partial curve, poor fit] |
| CCc1ccc(S(=O)(=O)c2c(C(=O)c3ccccc3)cnc3ccc(CC)cc23)cc1 | inconclusive [phenotype inactive, single point] |
| CCOCCCNC(=O)c1c(NC(=O)Cc2coc3ccc(C)cc23)sc2c1CCC2 | inconclusive [phenotype inactive, single point] |
| COc1ccc(C(=O)N2c3ccc(C)cc3C(C)(c3ccccc3)CC2(C)C)cc1 (stereo not drawn) | inconclusive [phenotype inactive, single point] |
| COc1ccc(NC(=O)Cn2c(=O)n(Cc3ccc(C(=O)NCc4ccccc4Cl)cc3)c(=O)c3ccccc32)cc1 | inconclusive [phenotype inactive, single point] |
| Cc1ccc(NC(=O)C2CCCN2S(=O)(=O)c2ccc3c(c2)CCCC(=O)N3)cc1Cl (stereo not drawn) | inconclusive [phenotype inactive, single point] |
| COc1ccc(OC)c(CNC(=O)CN2CC(C)Sc3ccccc32)c1 (stereo not drawn) | inconclusive [phenotype inactive, single point] |
| CCOc1ccccc1NC(=O)C(c1ccccc1)N1Cc2ccccc2C1=O (stereo not drawn) | inconclusive [phenotype inactive, single point] |
| COC(=O)c1cc(NC(=O)c2ccc3c(c2)NC(=O)c2ccccc2S3)cc(C(=O)OC)c1 | inconclusive [phenotype inactive, partial curve, poor fit] |
| Fc1ccc(-c2cn3cc(Cc4ccccc4)sc3n2)cc1 | inactive |
| COc1ccccc1CN1CCC(CNC(=O)c2cnn(-c3ccc(C)c(C)c3)c2C2CCN(C(=O)OC(C)(C)C)CC2)CC1 | inconclusive [phenotype inactive, partial curve] |
| Cc1ccc2oc(-c3cc(NC(=O)c4cccs4)cc(C)c3O)nc2c1 | inactive |
| CCOc1ccc(-c2cc(C(=O)N3CCN(c4cccc(C(F)(F)F)c4)CC3)c3ccccc3n2)cc1 | inactive |
| Cc1ccc(N2CCN(c3nc4c(S(=O)(=O)c5ccc(C)c(C)c5)nnn4c4ccccc34)CC2)c(C)c1 | inactive |
| O=C(c1ccc(CS(=O)(=O)c2c(Cl)cccc2Cl)o1)N1CCN(c2ccccc2)CC1 | inconclusive [phenotype inactive, single point] |
| COc1ccc(C2(CNC(=O)C(=O)Nc3ccc(C)c(Cl)c3)CCCC2)cc1OC | inconclusive [phenotype inactive, single point] |
| COc1ccccc1CNS(=O)(=O)c1c(C(=O)N2CCC(C)CC2)c(C)n(C)c1C | inconclusive [phenotype inactive, single point] |
| Cc1cccc(-n2nnc(-c3nc(-c4cccs4)no3)c2N)c1C | inactive |
| CC(NC(=O)c1cccc(Nc2nc3ccccc3n3nnnc23)c1)c1ccccc1 (stereo not drawn) | active: 11.3 µM |
| O=C(CSc1c2c(nc3ccccc13)CCC2)Nc1ccc(F)cc1F | inconclusive [phenotype inactive, partial curve] |

| SMILES | Potency |
| --- | --- |
| Cc1cc(F)ccc1NC(=O)CCS(=O)(=O)c1cccc2nsnc12 | inconclusive [phenotype inactive, partial curve, poor fit] |
| CC1(C)CC(=O)c2cc(C(=O)Nc3ccc(Cl)cc3)c(=O)[nH]c2C1 | inactive |
| COc1cc(Nc2nc(SCc3ccccc3F)nc3ccccc23)cc(OC)c1 | inconclusive [phenotype inactive, single point] |
| COc1cc(OC)c(NC(=O)Nc2nnc(N(C)C3CCCCC3)s2)cc1Cl | inconclusive [phenotype inactive, single point] |
| CCOc1ccc(N2C(=O)c3[nH]nc(-c4ccccc4)c3C2c2ccc(O)c(OC)c2)cc1 (stereo not drawn) | inconclusive [phenotype inactive, partial curve, poor fit] |
| COc1ccc(Cn2c(SCC(=O)NCc3ccccc3)nc3ccccc32)cc1 | inconclusive [phenotype inactive, partial curve, poor fit] |
| COc1ccccc1C(=O)Nc1cc(-c2cccc(Br)c2)nn1-c1ccccc1 | inconclusive [phenotype inactive, single point] |
| CCOc1cc(CNC(=O)c2ccc(NC(=O)c3nsc4ccccc34)cc2)ccc1OC | inactive |
| CSc1ccccc1NC(=O)CCS(=O)(=O)c1nc(-c2cccs2)cc(C(F)(F)F)n1 | inconclusive [phenotype inactive, partial curve] |
| Cc1cccc(-c2cc(NC(=O)COc3ccccc3F)n(-c3ccccc3)n2)c1 | inconclusive [phenotype inactive, single point] |
| COc1ccc(N2CCN(S(=O)(=O)CCNC(=O)Cc3ccc(-c4ccccc4)cc3)CC2)cc1 | active: 10.5 µM |
| CCCc1oc2ccc(NS(=O)(=O)c3ccc(OC)cc3)cc2c1C(=O)OCC | active: 13.4 µM |
| CCn1c(=N)n(CC(O)COc2ccccc2)c2ccccc21 (stereo not drawn) | inconclusive [phenotype inactive, partial curve] |
| Cc1cc(N(CCO)Cc2ccccc2)n2nc(-c3ccc(C(C)(C)C)cc3)nc2n1 | inconclusive [phenotype inactive, single point] |
| Cc1noc(/C=C/c2cccs2)c1S(=O)(=O)N1CCC(C(=O)NCc2ccc(Cl)cc2)CC1 | inconclusive [phenotype inactive, single point] |
| COc1cc(OC)c(NC(=O)c2cn(C3CCCC3)c(=O)c3c2c2ccccc2n3C)cc1Cl | inconclusive [phenotype inactive, single point] |
| COc1ccc(C2CC(=O)N(CC(=O)Nc3ccc(C)c(Cl)c3)c3ccccc3S2)cc1OC (stereo not drawn) | inactive |
| Cc1ccc(NC(=O)Cn2c(=O)n(Cc3ccc4c(c3)OCO4)c(=O)c3ccccc32)cc1 | inconclusive [phenotype inactive, single point] |
| Cc1cc(C)cc(Nc2nc3cc(Cl)c(Cl)cc3nc2-n2nc(C)cc2C)c1 | inactive |
| O=C(CSc1ncc2c(n1)-c1ccccc1N(Cc1ccc(F)cc1)S2(=O)=O)NCCc1ccccc1 | active: 17.8 µM |

| SMILES | Potency |
| --- | --- |
| Cc1ccc(-n2c(=O)c3ccc(C(=O)NCc4ccccc4Cl)cc3n(CC(=O)Nc3ccc(C)cc3C)c2=O)cc1 | active: 15 µM |
| COc1cccc(CNC(=O)CCc2c(C)c3ccc(O)c(C)c3oc2=O)c1 | inconclusive [phenotype inactive, single point] |
| Cc1ccc2c(=O)c(C(=O)c3ccccc3)cn(CC(=O)Nc3ccc4c(c3)OCCO4)c2n1 | inconclusive [phenotype inactive, partial curve, poor fit] |
| Cc1cc(C)cc(OCCn2c(C3CC(=O)N(c4ccccc4Cl)C3)nc3ccccc32)c1 (stereo not drawn) | inconclusive [phenotype inactive, single point] |
| Cc1nc2ccccc2n1CCc1nc2c3ccccc3nc(SCc3cccc(F)c3)n2n1 | inconclusive [phenotype inactive, single point] |
| CCCNC(=O)c1cc2nc(-c3ccc(Br)cc3)cc(C(F)(F)F)n2n1 | inconclusive [phenotype inactive, partial curve, poor fit] |
| O=C(Cn1cc(S(=O)(=O)Cc2ccccc2Cl)c2ccccc21)NCc1ccccc1Cl | inconclusive [phenotype inactive, single point] |
| CCc1nnc(NC(=O)c2nc(S(=O)(=O)Cc3cccc(C)c3)ncc2Cl)s1 | active: 9.46 µM |
| CCc1nn(CC(=O)N2CCN(c3cccc(C)c3C)CC2)c(=O)c2cc3occc3n12 | inconclusive [phenotype inactive, single point] |
| CCCn1c(SCc2nc(-c3ccccc3C)no2)nnc1-c1ccc(Cl)cc1 | inconclusive [phenotype inactive, single point] |
| COc1ccc(N2CCN(C(=O)c3c(C)oc4ncnc(N5CCCCC5)c34)CC2)cc1 | inactive |
| CCC(C(=O)Nc1ccc(C(=O)OC)cc1)n1nc(-c2ccc(C)cc2)c2c(c1=O)CCCC2 (stereo not drawn) | inconclusive [phenotype inactive, single point] |
| COc1ccc(-c2cc(C(=O)Nc3c(C(=O)c4ccc(Cl)cc4)oc4ccccc34)no2)cc1 | inactive |
| CC(NC(=O)Cn1ncc2c3ccccc3n(Cc3ccc(F)cc3)c2c1=O)c1ccccc1 (stereo not drawn) | inconclusive [phenotype inactive, single point] |
| CCS(=O)(=O)c1ncc(N(Cc2ccco2)Cc2sccc2C)c(C(=O)Nc2cc(C)ccc2C)n1 | inconclusive [phenotype inactive, single point] |
| O=C(Cc1ccc(NC(=O)N2CCSc3ncccc32)cc1)NCc1ccccc1Cl | inconclusive [phenotype inactive, single point] |
| COc1ccc(OC)c(C2CC(=O)c3c([nH]c(C(=O)OCC4CCCCC4)c3C)C2)c1 (stereo not drawn) | inactive |
| CCOc1ccc(C(=O)OCc2cc(=O)n3nc(C4CCCCC4)sc3n2)cc1 | inconclusive [phenotype inactive, single point] |
